Results as given in PubChem BioAssay AID651820 (National Center for Advancing Translational Sciences (NCATS), 2012).
Screen size: about 340,000 compounds; about 12,000 (3.5%) were called active. Inconclusive results, whose numbers are uncertain, are shown with a selection of clear calls. Calls follow the shape of the dose curve; as a rule, active = well fitted inhibition curve with a large enough effect; inconclusive = small, poorly fitted or top-dose-only effect, or another doubt; inactive = no such curve, though single readings can be large or run the other way. No potency is given beside an inconclusive call; the fits are too rough.

Assay: qHTS Assay for Inhibitors of Hepatitis C Virus (HCV)
Settings: Huh7.5.1 HCVcc-Cre (HCVcc is cell-culture hepatitis C virus) infection, luciferase reporter, 44 h; activity change, negative = inhibition: at 41.8 µM (top of the series) unless noted
Procedure, shortened: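 Cells (1,000/well) were plated 4 h before compound, then infected with HCVcc-Cre virus (~0.5 moi). After 44 h further culture, infection was read as luciferase luminescence following a 15 min substrate incubation at room temperature.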
% is scaled to controls: 0 for no effect and ±100 for the full control effect; potency is read from the fitted curve at half-maximal effect; tags tell the direction and shape of the fitted curve.

Compound	Potency	activity change, negative = inhibition
O=C(Nc1cccc(Cl)c1)Nc1nnc(CSCCOc2ccc(Cl)cc2)s1	active: 2.51 µM	
Cc1ccccc1NS(=O)(=O)c1ccc(C(=O)N2CCN(c3ccccc3O)CC2)cc1	inconclusive [inhibitor, single point]	
Cc1ccc2nc(N(CCN(C)C)C(=O)/C=C/c3cccs3)sc2c1	inconclusive [inhibitor, single point]	
O=C(CC1CC2CCC1C2)N1CCN(S(=O)(=O)c2ccccc2C(F)(F)F)CC1 (stereo unspecified)	inconclusive [inhibitor, single point]	
O=C(Nc1nnc(CCc2ccccc2)s1)c1ccccc1		inactive: 0.111%
c1coc(Cn2c(SCc3nc4ccccc4[nH]3)nnc2-c2cccs2)c1		inactive: -4.34%
COc1ccccc1N1CCN(C(=O)CCCCCn2c(=O)[nH]c3ccsc3c2=O)CC1		inactive: 9.29%
COC(=O)c1cc(C(=O)Nc2ccc(C)cn2)cc([N+](=O)[O-])c1	inconclusive [inhibitor, full curve]	
C[C@]12c3[nH]c4ccccc4c3CCN1C(=O)C(CC(=O)NCCc1ccccn1)C[C@@H]2C(=O)N1CCCCC1 (stereo partly specified)		inactive: 11.7%
COc1cccc(-c2nn(-c3ccccc3)cc2CN(C)C(C)c2ccon2)c1 (stereo unspecified)	inconclusive [inhibitor, single point]	
COc1ccc(S(=O)(=O)N2CCC(C(=O)NCC(=O)Nc3c(C)cccc3C)CC2)cc1OC	inconclusive [inhibitor, full curve]	
Nn1c(SCc2cccc(Br)c2)nnc1-c1cccnc1		inactive: 5.84%
Cc1cc2ncn(S(=O)(=O)c3ccc(S(=O)(=O)N4CCOCC4)cc3)c2cc1C	inconclusive [inhibitor, single point]	
Cc1onc(-c2ccccc2)c1-c1nnc(CN2CCN(S(=O)(=O)c3ccccc3)CC2)o1	inconclusive [inhibitor, single point]	
Fc1ccccc1SCc1nnc(-c2ccccc2Br)o1		inactive: -26.8%
C=CCNc1nc(Cl)nc(Nc2cc(Cl)ccc2OC)n1		inactive: -15.4%
Cc1ccccc1C(=O)NCC(=O)NC1CC1		inactive: 18.3%
CCn1c(SCc2cccnc2)nnc1-c1c[nH]c2ccccc12	inconclusive [inhibitor, single point]	
CCCn1c(C(C)Nc2nc(-c3ccc(C)cc3)cs2)nc2ccccc21 (stereo unspecified)	inconclusive [inhibitor, partial curve]	
CCn1cc(C(=O)NCc2ccco2)c(=O)c2cc(S(=O)(=O)N3CCCC3)ccc21	inconclusive [inhibitor, partial curve]	
O=C(Nc1ccc2oc(-c3ccccc3)nc2c1)c1ccncc1	active: 10 µM	
COc1ccc(Oc2nccc(-c3ccccc3)c2C#N)cc1	inconclusive [inhibitor, single point]	
CN1CCN(CC(=O)Nc2ccc(OC(F)(F)F)cc2)CC1	inconclusive [inhibitor, single point]	

Compound	Potency	activity change, negative = inhibition
O=C(Cn1c(=O)n(CC2CCCO2)c(=O)c2ccccc21)c1ccccc1 (stereo unspecified)		inactive: 8.14%
CCCn1nc2cc(C(=O)NC3CCCc4ccccc43)ccc2c1OCC (stereo unspecified)	inconclusive [inhibitor, full curve]	
COc1ccccc1CN(C)C(=O)CNC(=O)c1cccc(Cl)c1	inconclusive [inhibitor, single point]	
CCN(CC)CCNC(=O)c1cc2cc3ccc(OC)cc3nc2o1		inactive: -16.7%
CCc1cccc(CC)c1NC(=O)C1CN(S(=O)(=O)c2ccccc2)CCN1S(=O)(=O)c1ccccc1 (stereo unspecified)	active: 12.6 µM	
O=C(COc1ncnc2c1cnn2-c1ccccc1)Nc1ccc(S(=O)(=O)N2CCCCC2)cc1	inconclusive [inhibitor, single point]	
O=C(NNc1cc(N2CCOCC2)nc(N2CCOCC2)n1)c1ccc(Cl)c(Cl)c1	inconclusive [inhibitor, full curve, poor fit]	
COCC(=O)Nc1c(C(=O)Nc2cccc(OC)c2)oc2ccccc12	inconclusive [inhibitor, single point]	
Cc1ccc2c(c1)CCCN2C(=O)c1c(C)noc1C		inactive: 5.86%
CN1CCN(C(=S)c2cn(Cc3cccc(F)c3)c3ccccc23)CC1	inconclusive [inhibitor, single point]	
COC(=O)C1=C(c2ccc(-c3ccccc3)c(F)c2)C[C@@H]2CC[C@H]1N2C(=O)N1CCOCC1	active: 3.55 µM	
Cc1cc(=O)oc2cc(OCC(=O)Nc3ccccc3C(N)=O)c(Cl)cc12	inconclusive [inhibitor, full curve, poor fit]	
Cc1ccc(-c2nnc(N(C)C(=O)c3cccnc3)s2)cn1		inactive: -8.96%
O=C(CSc1n[nH]c(-c2ccc(S(=O)(=O)N3CCCCC3)cc2)n1)Nc1nccs1		inactive: 4.43%
COc1ccccc1N(/N=C1\Sc2ccccc2C1=O)C(C)=O	inconclusive [inhibitor, full curve]	
C[C@@H]1CC=C[C@H]2[C@H]1C(=O)N(Cc1ccccc1)[C@H]2c1ccc(-c2ccc(N(C)C)cc2)cc1F		inactive: -25.7%
O=C(Nc1ccc2nsnc2c1)NC1CCCCC1	inconclusive [inhibitor, full curve, poor fit]	
COc1ccc(C(=O)OCC(=O)c2cc(C)n(CC3CCCO3)c2C)cc1[N+](=O)[O-] (stereo unspecified)	inconclusive [inhibitor, single point]	
CCC(=O)Nc1ccc(OCc2nc3ccccc3s2)cc1	inconclusive [inhibitor, single point]	
Clc1ccc2[nH]c(-c3ccccc3)cc2c1	inconclusive [inhibitor, single point]	
N#CN(CC(N)=O)c1nc(N2CCCCC2)nc(N2CCCCC2)n1	active: 10 µM	
COc1ccc(S(=O)(=O)N(C)CC(=O)NCCC2=CCCCC2)cc1C	inconclusive [inhibitor, partial curve]	
CC1(c2ccc([N+](=O)[O-])cc2)CC(C)(C)N(C(=O)c2ccccc2)c2ccccc21 (stereo unspecified)		inactive: 10.5%
